Laboratory results published in PMC4336329 (PLoS ONE, 2015).
Hit rate of the full screen: of about 310,000 compounds, about 14,000 (4.5%) showed an effect of 50% or more. The effect is printed as a negative number. This is one part of the list.

The compounds below were run against human ether-à-go-go-related gene (hERG) potassium channel (human, UniProt Q12809) (assay: primary screen, population patch clamp on CHO cells stably expressing hERG).
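Note: peak tail current of the secondary pulse compared with the same well before compound.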

Sequence of human ether-à-go-go-related gene (hERG) potassium channel (Q12809 whole entry, looked up): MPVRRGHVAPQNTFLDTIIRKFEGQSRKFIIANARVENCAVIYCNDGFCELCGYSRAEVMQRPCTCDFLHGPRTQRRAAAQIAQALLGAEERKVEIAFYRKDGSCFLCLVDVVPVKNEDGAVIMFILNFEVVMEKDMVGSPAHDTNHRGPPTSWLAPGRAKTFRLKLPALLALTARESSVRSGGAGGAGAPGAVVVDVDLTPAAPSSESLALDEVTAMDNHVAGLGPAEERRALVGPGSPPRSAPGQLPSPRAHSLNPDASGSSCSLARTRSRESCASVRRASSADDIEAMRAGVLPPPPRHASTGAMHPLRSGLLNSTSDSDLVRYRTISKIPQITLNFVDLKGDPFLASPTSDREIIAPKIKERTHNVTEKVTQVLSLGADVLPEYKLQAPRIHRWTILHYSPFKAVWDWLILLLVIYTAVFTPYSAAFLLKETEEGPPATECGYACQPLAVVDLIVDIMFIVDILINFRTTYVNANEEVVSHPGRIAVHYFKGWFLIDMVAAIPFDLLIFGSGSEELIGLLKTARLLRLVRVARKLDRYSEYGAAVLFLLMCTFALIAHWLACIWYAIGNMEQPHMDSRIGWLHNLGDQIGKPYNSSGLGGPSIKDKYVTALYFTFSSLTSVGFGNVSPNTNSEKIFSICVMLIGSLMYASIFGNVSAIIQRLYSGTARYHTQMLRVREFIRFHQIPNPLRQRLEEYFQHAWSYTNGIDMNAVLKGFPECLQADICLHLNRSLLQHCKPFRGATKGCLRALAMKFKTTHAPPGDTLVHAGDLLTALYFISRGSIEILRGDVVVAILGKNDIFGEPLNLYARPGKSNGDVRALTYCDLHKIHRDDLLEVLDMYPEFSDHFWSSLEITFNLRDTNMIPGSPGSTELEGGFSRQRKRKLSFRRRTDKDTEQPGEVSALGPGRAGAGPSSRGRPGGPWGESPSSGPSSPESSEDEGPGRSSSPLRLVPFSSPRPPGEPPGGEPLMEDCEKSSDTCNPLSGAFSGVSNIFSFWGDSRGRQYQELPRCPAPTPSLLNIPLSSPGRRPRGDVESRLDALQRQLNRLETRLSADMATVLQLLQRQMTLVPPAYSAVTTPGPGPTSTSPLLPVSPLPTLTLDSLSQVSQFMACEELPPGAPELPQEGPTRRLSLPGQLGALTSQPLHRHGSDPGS

First: CCOC(=O)[C@@H]1[C@H]2COc3cc(OC)ccc3[C@@H]2N2C(=O)N(c3ccc(C(F)(F)F)cc3)C(=O)[C@]12C
Second: Cc1nn(C)cc1CNC(=O)C1CCC(=O)N(Cc2cccc(C(F)(F)F)c2)C1 (stereo not shown)
The “hERG current change (%, negative = inhibition) at 10uM” value of the first is higher: 15.1% for the first, 13% for the second.

Going from `O=C(NNS(=O)(=O)c1ccc(F)cc1)c1ccc(O)cc1` to `CCc1ccc(OCCNC(=O)c2ccc(S(=O)(=O)N(C)C)cc2)cc1`, the “hERG current change (%, negative = inhibition) at 10uM” value falls from 9.17% to -15.9%.

Compared with `COc1ccc(NC(=O)CN(C)CC(=O)Nc2cccc(F)c2)cc1Cl`, `O=C(NCc1ccc2c(c1)OCO2)Nc1cccc(Cl)c1` is higher in “hERG current change (%, negative = inhibition) at 10uM” value: -28.9% for the first, 11.7% for the second.

First: Cc1nn(-c2ccc(F)cc2)c(Cl)c1/C=C1\C(=O)Nc2ccccc21
Second: O=C1NC(=O)N(c2ccc(F)cc2)C(=O)/C1=C/c1ccsc1
The “hERG current change (%, negative = inhibition) at 10uM” value of the first is lower: 5.24% for the first, 5.25% for the second.

Going from `O=C(OC(C(=O)NCc1cccs1)c1ccccc1Cl)c1ccco1` (stereo not shown) to `CC(OC(=O)CNC(=O)c1ccccc1F)C(=O)Nc1nc(-c2ccccc2)cs1` (stereo not shown), the “hERG current change (%, negative = inhibition) at 10uM” value rises from -23.6% to -11.6%.

First: COc1ccc(N2C(=O)CCC(C(=O)N3CCN(c4ccccn4)CC3)C2c2ccc(F)cc2)cc1 (stereo not shown)
Second: COc1ccc(C)cc1S(=O)(=O)N1CCCC(C(=O)N2CCN(c3ccccc3)CC2)C1 (stereo not shown)
The “hERG current change (%, negative = inhibition) at 10uM” value of the first is lower: -48.2% for the first, -17.5% for the second.

First: COc1ccc(CNC(=O)C2CCCN2S(=O)(=O)c2ccc(S(=O)(=O)N(C)C)cc2)cc1 (stereo not shown)
Second: COC(=O)c1ccc(COC(=O)[C@@H]2CC(O)CN2S(=O)(=O)c2ccccc2[N+](=O)[O-])cc1 (stereo partly shown)
The “hERG current change (%, negative = inhibition) at 10uM” value of the first is lower: -10.7% for the first, -10.2% for the second.

First: Cc1nnc(NC(=O)c2ccc3c(c2)OCO3)s1
Second: Cc1ccc(CC(=O)N/N=C/c2ccc3c(c2)OCO3)cc1
The “hERG current change (%, negative = inhibition) at 10uM” value of the first is higher: 20.3% for the first, 5.13% for the second.

First: CCn1c(N)c(C(=O)N2CCOCC2)sc1=S
Second: O=C(c1cc(C(=O)N2CCOCC2)c2nc3ccccc3n2c1)c1ccccc1O
The “hERG current change (%, negative = inhibition) at 10uM” value of the first is higher: 11.4% for the first, -6.65% for the second.

Compared with `Cc1cccc(C)c1OCC(=O)NCc1ccccc1`, `CCS(=O)CC(=O)Nc1c(-c2ccccc2)oc2ccccc2c1=O` (stereo not shown) is higher in “hERG current change (%, negative = inhibition) at 10uM” value: -1.24% for the first, 11.7% for the second.

First: COc1cc(C(=O)NCC(=O)N/N=C/c2ccc(-c3cccc([N+](=O)[O-])c3)o2)cc(OC)c1OC
Second: COc1cc(C(=O)N2CCN(C(=O)c3cc(-c4ccc(Br)cc4)n[nH]3)CC2)cc(OC)c1OC
The “hERG current change (%, negative = inhibition) at 10uM” value of the first is higher: -2.18% for the first, -73.3% for the second.

First: CC1CCCCC1NC(=O)C1Cc2ccccc2CN1S(C)(=O)=O (stereo not shown)
Second: CC(=O)N1c2ccc(S(=O)(=O)NCC3CCC(C(=O)NCc4ccccc4)CC3)cc2CC1C (stereo not shown)
The “hERG current change (%, negative = inhibition) at 10uM” value of the first is lower: 2.98% for the first, 23.7% for the second.

Going from `COc1ccccc1C(=O)NC(=O)COC(=O)CCOc1cc(C)ccc1C` to `CC(C)NC(=O)/C(C#N)=C/c1cccc(NC(=O)c2ccccc2Cl)c1`, the “hERG current change (%, negative = inhibition) at 10uM” value falls from 1.93% to 0.548%.

First: S=c1nc(-c2ccccc2)c(-c2ccccc2)n[nH]1
Second: O=C(CSc1nnc(COc2ccccc2)n1-c1ccccc1)c1cccs1
The “hERG current change (%, negative = inhibition) at 10uM” value of the first is higher: 19.6% for the first, -6.35% for the second.

Compared with `COc1ccc(-c2nc(C#N)c(N3CCCCCC3)o2)cc1`, `COc1ccccc1S(=O)(=O)Nc1cccc(-c2nnc3n2CCCCC3)c1` is higher in “hERG current change (%, negative = inhibition) at 10uM” value: -23.3% for the first, 5.99% for the second.

First: CCn1c(SCC(=O)N2c3ccccc3Sc3ccccc32)nc2c1c(=O)n(C)c(=O)n2C
Second: COc1ccc(NCC(O)Cn2cnc3c2c(=O)n(C)c(=O)n3C)cc1 (stereo not shown)
The “hERG current change (%, negative = inhibition) at 10uM” value of the first is lower: -8.47% for the first, 14.7% for the second.

Compared with `O=C(Nc1ccc(OC(F)(F)F)cc1)c1cnccn1`, `O=C(CNC(=O)c1ccccc1)Nc1cccc(C(F)(F)F)c1` is higher in “hERG current change (%, negative = inhibition) at 10uM” value: -14.5% for the first, -3.37% for the second.

Compared with `CC1CCCN(CC(O)COCC2COc3ccccc3O2)C1.Cl` (stereo not shown), `O=C(NCc1ccc2c(c1)OCO2)C1CC(=O)N(C2CCCCCCC2)C1` (stereo not shown) is higher in “hERG current change (%, negative = inhibition) at 10uM” value: -28.2% for the first, -0.78% for the second.

Going from `CN(C)C(=O)CSc1nnc([C@H](Cc2c[nH]c3ccccc23)NC(=O)OC(C)(C)C)o1` to `COC(=O)Cc1cc(=O)[nH]c(/N=C(\N)Nc2ccccc2)n1`, the “hERG current change (%, negative = inhibition) at 10uM” value rises from -4.24% to 17.6%.

Compared with `COc1ccc(C2CC3(CC(C)(C)NC(=S)N3)Oc3cc(O)cc(C)c32)cc1` (stereo not shown), `COc1cc2c(cc1OC)CN(C(=S)Nc1ccc(C)cc1C)CC2` is lower in “hERG current change (%, negative = inhibition) at 10uM” value: 14.6% for the first, -5.67% for the second.

Compared with `CCCCc1c(C)nc2ccccc2c1SCCC#N`, `C/C(=N\n1c(C)nc2ccccc2c1=O)c1ccc(C)o1` is higher in “hERG current change (%, negative = inhibition) at 10uM” value: -50.6% for the first, 11.8% for the second.

First: Cc1cc(C)cc(N2C(=O)NC(=O)/C(=C\c3cccn3-c3ccc(Cl)cc3)C2=O)c1
Second: CCc1nnc(NC(=O)CCN(c2cc(C)cc(C)c2)S(=O)(=O)c2ccc(Cl)cc2)s1
The “hERG current change (%, negative = inhibition) at 10uM” value of the first is lower: 9.97% for the first, 17.7% for the second.

Going from `O=C(Cn1ncc(N2CCCC2)c(Cl)c1=O)c1ccc(Cl)cc1` to `Cc1cccc(C)c1NC(=O)CCc1nnc2ccc(N3CCCC3)nn12`, the “hERG current change (%, negative = inhibition) at 10uM” value rises from -21.2% to 10.3%.

Going from `O=C1CN(c2nc(-c3cccs3)nc3sc4c(c23)CCCC4)CCN1` to `O=C(C1CCN(c2ncnc3c2sc2cccc(F)c23)CC1)N1CCCC1`, the “hERG current change (%, negative = inhibition) at 10uM” value falls from 0.456% to -19.7%.

Compared with `CC(C)(C)n1ncc2c(=O)n(CC(=O)N3CCCC3)cnc21`, `CN1CCN(C(=O)c2cc(Cl)ccc2Cl)CC1` is lower in “hERG current change (%, negative = inhibition) at 10uM” value: 9.77% for the first, 2.43% for the second.

Going from `Cc1ccc(S(=O)(=O)N2CCOCC2)cc1C(=O)OCC(=O)Nc1ccc2[nH]c(=O)[nH]c2c1` to `O=C(NCCOc1ccccc1)c1cc(S(=O)(=O)N2CCOCC2)ccc1F`, the “hERG current change (%, negative = inhibition) at 10uM” value falls from 3.54% to 0.542%.

Going from `CC1=CC(=O)OC1Cc1ccncc1` (stereo not shown) to `O=S(=O)(NCc1cccnc1)c1ccc(Cl)s1`, the “hERG current change (%, negative = inhibition) at 10uM” value falls from 11.3% to 6.91%.

First: CCC(C)c1ccc(C(CC)NC(=O)C2CCCO2)cc1 (stereo not shown)
Second: Cc1ccc(NC(=S)NC(=O)CC2CC(C)(C)OC2=O)cc1 (stereo not shown)
The “hERG current change (%, negative = inhibition) at 10uM” value of the first is higher: 16.4% for the first, 0.394% for the second.

Going from `CCCCCCCOC(=O)c1ccc(OC(=O)c2cccnc2)cc1` to `O=[N+]([O-])c1ccc(OCC(O)CN(CCO)CCO)cc1` (stereo not shown), the “hERG current change (%, negative = inhibition) at 10uM” value falls from 14.1% to -54.8%.

Compared with `COc1ccc(-c2nnc3n(CCc4ccccc4)c(=O)c4ccccc4n23)c(OC)c1`, `CCn1c(SCC(=O)Nc2oc(-c3ccccc3)c(-c3ccccc3)c2C#N)nnc1-c1cc(OC)cc(OC)c1` is lower in “hERG current change (%, negative = inhibition) at 10uM” value: 4.4% for the first, -5.33% for the second.

First: COc1cccc(CNC(=O)CCNS(=O)(=O)c2cccc3nsnc23)c1
Second: CCNc1c(NS(=O)(=O)c2ccc(F)c(Cl)c2)c(=O)oc2ccccc12
The “hERG current change (%, negative = inhibition) at 10uM” value of the first is higher: -3.16% for the first, -48.1% for the second.

Compared with `Fc1ccccc1N1CCN(Cc2c(F)cccc2F)CC1`, `O=C(c1cc(-n2cnnc2)ccc1Cl)N1CCN(c2nc(-c3ccccc3)cs2)CC1` is lower in “hERG current change (%, negative = inhibition) at 10uM” value: 7.89% for the first, -21.3% for the second.

Going from `O=C(NC1CCCCC1)C(c1ccccc1)N(C(=O)c1csnn1)C1CCCC1` (stereo not shown) to `CC1CCC(NC(=O)c2cc3c(s2)CCCC3)CC1` (stereo not shown), the “hERG current change (%, negative = inhibition) at 10uM” value rises from -0.211% to 1.57%.

Compared with `O=S(=O)(Nc1cccc(Cl)c1)c1ccc(-n2cccn2)cc1`, `O=C(NCCOc1cccc(Oc2ccccc2)c1)c1cc(-n2cnnc2)ccc1Cl` is lower in “hERG current change (%, negative = inhibition) at 10uM” value: -0.875% for the first, -26.9% for the second.

Going from `CC1(C)Cc2c(C#N)c(N3CCNCC3)nc(-c3ccco3)c2CS1` to `N#Cc1ccsc1NC(=O)c1cccc([N+](=O)[O-])c1`, the “hERG current change (%, negative = inhibition) at 10uM” value rises from -21.3% to 17.6%.

Going from `COc1cc(CSc2nnnn2-c2ccc(C)cc2)cc(OC)c1OC` to `COc1cc(CCC(=O)OCC(=O)NC2CCCC(C)C2C)cc(OC)c1OC` (stereo not shown), the “hERG current change (%, negative = inhibition) at 10uM” value falls from 8.81% to 3.08%.

Compared with `CCCn1nc(C(=O)OCc2nc(N)nc(Nc3ccccc3C)n2)c2ccccc2c1=O`, `CCc1nn(CCCC(=O)Nc2ccc(C)cc2C)c(=O)c2cc3occc3n12` is higher in “hERG current change (%, negative = inhibition) at 10uM” value: -25.1% for the first, -13.3% for the second.

Going from `COc1cccc(NC(=S)N(CCCN2CCOCC2)C(C)c2cc3cccc(OC)c3o2)c1` (stereo not shown) to `O=c1c2ccccc2nc(SCCN2CCOCC2)n1CCc1ccccc1`, the “hERG current change (%, negative = inhibition) at 10uM” value falls from 6.32% to -15.4%.

Going from `CC1(C)c2[nH]c3ccccc3c2C[C@H]2C(=O)N(Cc3cccc(F)c3)C(=O)N21` to `Cc1ccc(Cn2nnc3c(=O)[nH]c(C4CCN(S(=O)(=O)c5ccccc5F)CC4)nc32)cc1`, the “hERG current change (%, negative = inhibition) at 10uM” value falls from 2.06% to -19%.

First: COC(=O)c1ccccc1S(=O)(=O)N1CCn2cccc2C1C (stereo not shown)
Second: O=C(c1cnn(C(=O)COc2ccccc2F)c1)c1cc(F)ccc1O
The “hERG current change (%, negative = inhibition) at 10uM” value of the first is lower: 2.18% for the first, 12.5% for the second.

Going from `N/C(=N\OC(=O)CC1CCCCC1)c1cccc([N+](=O)[O-])c1` to `Br.O=[N+]([O-])c1ccc(CSC2=NCCN2)cc1`, the “hERG current change (%, negative = inhibition) at 10uM” value falls from -6.21% to -15.3%.

First: O=C(Nc1nc(-c2cc(Cl)sc2Cl)cs1)c1ccc(Br)s1
Second: COC(=O)Cc1c(C)nc2nc(NCc3ccc(Cl)cc3)[nH]n2c1=O
The “hERG current change (%, negative = inhibition) at 10uM” value of the first is lower: -6.05% for the first, 6.18% for the second.

`CCCCSCCCNC(=O)C1CCC(CNS(=O)(=O)c2ccccc2)CC1` (stereo not shown) was tested, and the “hERG current change (%, negative = inhibition) at 10uM” value was 0.585%.
